From publication PMC4336329 (PLoS ONE, 2015)
The campaign covered roughly 310,000 compounds. About 14,000 (4.5%) showed an effect of 50% or more. Effects have a minus sign here. The list shows a part of the results.

target: human ether-à-go-go-related gene (hERG) potassium channel (human, UniProt Q12809); assay: primary screen, population patch clamp on CHO cells stably expressing hERG
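Further: peak tail current of the secondary pulse compared with the same well before compound.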

Chain of human ether-à-go-go-related gene (hERG) potassium channel (Q12809 whole entry, looked up): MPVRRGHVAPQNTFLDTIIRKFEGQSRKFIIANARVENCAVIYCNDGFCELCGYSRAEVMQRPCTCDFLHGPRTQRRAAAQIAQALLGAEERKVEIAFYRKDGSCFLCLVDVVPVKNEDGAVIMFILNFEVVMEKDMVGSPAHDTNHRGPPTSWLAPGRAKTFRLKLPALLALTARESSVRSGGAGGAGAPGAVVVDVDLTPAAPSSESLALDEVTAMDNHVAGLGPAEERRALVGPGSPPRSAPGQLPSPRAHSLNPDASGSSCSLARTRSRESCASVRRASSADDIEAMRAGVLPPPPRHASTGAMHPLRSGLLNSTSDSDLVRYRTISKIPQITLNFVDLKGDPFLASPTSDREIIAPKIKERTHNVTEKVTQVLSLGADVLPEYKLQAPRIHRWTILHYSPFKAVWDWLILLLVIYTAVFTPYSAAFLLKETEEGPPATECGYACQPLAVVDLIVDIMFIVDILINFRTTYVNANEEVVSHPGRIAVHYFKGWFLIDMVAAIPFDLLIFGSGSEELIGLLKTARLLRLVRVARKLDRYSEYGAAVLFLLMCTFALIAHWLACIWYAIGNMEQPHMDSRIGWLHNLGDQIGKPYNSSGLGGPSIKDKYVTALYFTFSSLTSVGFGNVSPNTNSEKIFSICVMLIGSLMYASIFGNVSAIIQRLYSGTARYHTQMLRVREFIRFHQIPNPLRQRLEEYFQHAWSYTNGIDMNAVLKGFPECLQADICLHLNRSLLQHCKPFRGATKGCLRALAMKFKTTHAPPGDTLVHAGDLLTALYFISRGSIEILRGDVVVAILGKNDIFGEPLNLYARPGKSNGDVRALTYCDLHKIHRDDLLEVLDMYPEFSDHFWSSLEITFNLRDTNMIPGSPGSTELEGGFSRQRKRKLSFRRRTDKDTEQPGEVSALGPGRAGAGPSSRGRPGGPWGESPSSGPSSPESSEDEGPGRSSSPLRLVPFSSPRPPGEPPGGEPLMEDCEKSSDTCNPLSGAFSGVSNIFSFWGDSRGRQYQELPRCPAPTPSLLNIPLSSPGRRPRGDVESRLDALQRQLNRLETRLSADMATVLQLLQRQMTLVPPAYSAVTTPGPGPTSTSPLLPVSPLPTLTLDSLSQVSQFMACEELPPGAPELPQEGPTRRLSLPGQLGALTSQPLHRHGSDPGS

Compound	hERG current change (%, negative = inhibition) at 10uM [%]
COc1cccc(CN(C)C(=O)CNC(=O)c2ccc3c(c2)OCO3)c1OC	15.3
COc1ccc(-c2nnc(NC(=O)CSc3ccc(Cl)cc3)s2)cc1OC	-14.2
COc1ccc(CCNC(=O)Cn2c(=O)n(CC3CCCO3)c(=O)c3ccccc32)cc1OC (centres unmarked)	-0.738
S=C(Nc1ccccc1Cl)N1CCCCCC1	5.72
Cc1nc(-c2ccc(F)cc2)c(CC(=O)N2CCN(S(=O)(=O)c3cccc(Cl)c3)CC2)s1	-17.7
Cc1ccc(N(CC(=O)Nc2cccc(C)c2)S(=O)(=O)c2cccc3nonc23)cc1	0.456
O=C(c1ccc(F)cc1)N1CCC(n2nnc3ccccc32)CC1	-33.3
Cc1cc(NC(=O)c2ccc(Cl)cc2Cl)no1	6.38
Cc1ccc(NC(=O)Cn2ncc(Cl)c(Cl)c2=O)cc1S(=O)(=O)N1CCCCC1	-40
CC(=O)c1ccc(S(=O)(=O)NC2CC(=O)N(c3ccc(C)cc3)C2)cc1 (centres unmarked)	-12.4
Cc1cc(Cn2nc(-c3ccccc3)cc2C(=O)NCc2cccc(Br)c2)on1	-14.6
CCC1CCCCN1C(=O)CSc1nnc(CNC(=O)c2cc(OC)c(OC)c(OC)c2)o1 (centres unmarked)	6.43
O=c1c2cn[nH]c2nc(SCc2cc(=O)n3cc(Br)ccc3n2)n1-c1ccc(Br)cc1	-24.8
O=C(CCCn1c(=O)[nH]c2ccsc2c1=O)NC1CCCCC1	18.6
COc1ccc(C2(CNS(=O)(=O)c3ccc(C)cc3)CCOCC2)cc1	15.4
CSc1ccc(/C=c2\s/c(=C\C(=O)C(C)(C)C)n(CC(=O)NCCC3=CCCCC3)c2=O)cc1	-8.94
O=C(c1ccco1)N1CCN(Cc2cc(=O)oc3cc(O)ccc23)CC1	-69.3
Cc1nc2ccc(Br)cc2c2c1CC(CO)O2 (centres unmarked)	-20.1
COC(=O)c1ccc(CNC(=O)C2CCC(=O)N(Cc3cccc(F)c3)C2)cc1 (centres unmarked)	-12.7
COc1ccc(NC(=O)c2cc(C)on2)cc1OC	-0.652
COc1cc(C(=O)NC(=S)Nc2ccc([N+](=O)[O-])cc2)cc(OC)c1OC	1.26
Cc1cc(C)n(-c2nc3ccccc3s2)n1	-8.34
COC(=O)C1=CN(c2cccc(C(F)(F)F)c2)C=C(C(=O)OC)C1c1ccc(O)c(OC)c1	6.18

Compound	hERG current change (%, negative = inhibition) at 10uM [%]
O=S(=O)(Cc1ccccc1)N1CCCCC1	14.1
COc1cc(=O)[nH]c(=O)n1CC(=O)c1ccccc1	4.43
Cc1ccc(-c2c3c(=O)n(C)c(=O)n(C)c3cn2Cc2cccnc2)cc1	-13.8
CCC(C)c1ccccc1NC(=O)C1CCCO1 (centres unmarked)	15
C=CCOC(=O)C1=C[C@H](c2coc3ccccc3c2=O)C[C@H](OCc2ccc(CO)cc2)O1	-62.3
O=[N+]([O-])c1cc(C(F)(F)F)ccc1Oc1cccnc1[N+](=O)[O-]	-7.06
CCCCC(=O)Nc1ncc([N+](=O)[O-])s1	0.395
COc1ccccc1C(=O)NC(=O)COC(=O)c1cccc(C)c1O	16.3
CCOCCOC(=O)c1ccc(-n2cncn2)nc1	1.72
CCOC(=O)C(NC(C)=O)C(=O)Nc1ccc(C(C)(C)C)cc1 (centres unmarked)	6.04
COc1ccc(CC(=O)OCC(=O)c2ccc(OC)c(OC)c2)cc1	-10
Cc1ccc(C(=O)NCCNC(=O)c2ccc(F)cc2)cn1	6.18
Cc1ccc2c(CN(C)Cc3cccc(F)c3)cc(=O)oc2c1C	12.4
O=C1c2ccccc2C(=O)N1CCN1CCOCC1	17
O=C(OCCN1C(=O)c2ccccc2C1=O)c1ccccc1	4.41
CCOc1ccc(N2C=Nc3ccc(OCC)cc3C2)cc1	-63.9
Oc1c(C(c2cccs2)N2CCOCC2)sc2ncnn12 (centres unmarked)	8.08
CS(=O)(=O)Nc1ccc(-c2ccc(/C=C3\SC(N)=NC3=O)o2)cc1	15.5
CC(=O)c1ccc(NC(=O)C(C)OC(=O)COc2ccc(C#N)cc2)cc1 (centres unmarked)	-33
COc1ccc(NC(=O)C(=O)NCCC2CCCCN2S(=O)(=O)c2cccs2)cc1 (centres unmarked)	-16.5
COc1ccc(-c2csc3ncnc(N4CCN(c5ccccc5O)CC4)c23)cc1	9.28
COc1cnn(-c2ccccc2)c(=O)c1N(C)C	4.42
C=CCN(C(=O)CCC(=O)Nc1cc(C)on1)C(C(=O)NC1CCCC1)c1cccnc1 (centres unmarked)	8.16

Compound	hERG current change (%, negative = inhibition) at 10uM [%]
CC(=O)c1ccc(NC(=O)CCCCCn2nnc3ccccc3c2=O)cc1	-2.46
Cn1c(SCC(=O)Nc2cccc(F)c2)nnc1-c1cc2ccccc2o1	5.55
Cc1nnc(SCC(=O)Nc2nc(-c3ccc(F)cc3)cs2)[nH]c1=O	-1.09
O=C(CSc1nnc(-c2c[nH]c3ccccc23)o1)c1ccccc1	-1.72
CC(Sc1nc2ccccc2c(=O)n1CC1CCCO1)C(=O)N(C)Cc1ccccc1 (centres unmarked)	-59.8
CN(C(=O)c1ccco1)c1nc(-c2ccc(Cl)cc2)cs1	8.09
COCCNC(=O)C(C)N(c1ccc(OC)cc1)S(C)(=O)=O (centres unmarked)	3.69
CSc1ccc(/C=C/C(=O)c2ccc(NC(=O)C(C)C)cc2)cc1	14.4
COc1cc(/C=C2/SC(=S)N(Cc3ccccc3)C2=O)cc(OC)c1O	18
Cc1ccnc(-n2c(C)nc3ccccc3c2=O)c1	12.2
Cc1oncc1-c1cn2ccccc2n1	6.61
NS(=O)(=O)c1ccc2nc(NC(=O)c3ccc(Br)o3)sc2c1	3.81
COc1ccc(OC)c(Nc2nc3ccccc3n3cnnc23)c1	16
Cc1ccc(C2(CC(=O)N3CCCC3)CCOC(C(C)C)C2)cc1 (centres unmarked)	0.617
O=C(CCS(=O)(=O)c1ccccc1)Nc1nc(-c2cccs2)cs1	-23.4
CCCC(=O)C1=C(O)C(C(=O)OC)C(C)(C)CC1=NC(C)(C)C (centres unmarked)	10.3
C/C=C\C=C/C(=O)Nc1cccc(C2=NOC3(C2)C[C@@H](C(N)=O)N(C(=O)[C@H]2CCC(=O)N2)C3)c1 (some centres unmarked)	24.1
CC1=CC(=C2C(=O)c3ccccc3C2=O)C=C(C)N1C	-6.45
CC(=O)Nc1ccc(OCC(O)CN2CCN(c3ccc(F)cc3)CC2)cc1 (centres unmarked)	-23.4
COc1ccc(CC(=O)OCC(=O)N2CCCC(C)C2)cc1 (centres unmarked)	26
COc1cccc(NC(=O)Cn2c(=O)oc3cc(S(=O)(=O)N4CCCC4)ccc32)c1	11.4
CC1=C(C(=O)OC(C)C)C(c2cccs2)NC(=S)N1 (centres unmarked)	-2.18
c1ccc2c(c1)C(=NC1CCCCC1)NC2=NC1CCCCC1	-14

Compound	hERG current change (%, negative = inhibition) at 10uM [%]
Fc1ccc(OCc2nn3cnnc3s2)cc1	5
Cc1cccc(N2C(=O)CC(N3CCN(Cc4ccc5c(c4)OCO5)CC3)C2=O)c1 (centres unmarked)	-19.1
O=C1c2ccccc2NC(c2ccc(-c3ccc(Br)cc3)o2)N1O (centres unmarked)	-9.56
CCOC(=O)C1=C(COC(=O)c2cccs2)NC(=O)NC1C (centres unmarked)	6.08
c1ccc2c(c1)CC(N1CCCCC1)c1ccccc1N2 (centres unmarked)	-15.2
CNC(=O)CSc1nnc(-c2cccc(S(=O)(=O)N3CCOCC3)c2)n1-c1ccc(F)cc1	2.23
CC(O)c1nc2ccccc2n1C/C=C/c1ccccc1 (centres unmarked)	-13.3
COc1ccc(Cc2nccc3cc(OC)c(OC)cc23)cc1OC.Cl	-7.68
COc1ccc(C(=O)NC(=S)Nc2ccc(S(=O)(=O)Nc3cc(C)on3)cc2)cc1OC	4.8
Cc1ccc(NC(=O)N(C2=NCC(C)S2)c2ccccc2)cc1 (centres unmarked)	16.3
COc1ccccc1C(=O)Nc1cc2c(ccc3ccccc32)oc1=O	-1.2
COc1ccc(C)cc1NC(=O)c1cc(S(=O)(=O)N2CCCCC2)ccc1N1CCOCC1	-39.2
N#Cc1ccc(-c2ccc3c(c2)OCO3)nc1SCC(=O)OCc1ccccc1	9.22
O=C(NC(=Nc1ccccc1)N1CCOCC1)Nc1ccccc1	0.147
CCOC(=O)N1CCC(O)(c2cc(C)c(C)cc2C)CC1	-2.36
CCCNc1c(NS(=O)(=O)c2ccc(Cl)s2)c(=O)oc2ccccc12	-49.1
COC(=O)c1sc2ccccc2c1NC(=O)c1ccc(S(=O)(=O)N2CCCCC2)cc1	11.2
Nc1c(-c2ccccc2)cnn1C1CCS(=O)(=O)C1 (centres unmarked)	4.46
Cc1ccc(O)c(NC(=O)C2=CC(c3cccs3)=NS(=O)(=O)N2C)c1	-2.67
CC1CCc2nn(CC(=O)NCc3ccc(F)cc3)cc2C1 (centres unmarked)	1.41
